Laboratory results as given in PubChem BioAssay AID488969 (Vanderbilt High Throughput Screening Facility, 2010).
The full ranking holds about 110,000 compounds; the median of “z-score” is about -0.1, and the highest 2% start at about 2. The list shows a part of the results. Calls of active or inactive are those of the source.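 Rule for the calls: active = z-score in the third read window above 3 or below -3; inactive = the rest.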

Molecular target: Metabotropic glutamate receptor 8 (Rattus norvegicus) (UniProt P70579)
Sequence of UniProt P70579 (P70579 whole entry, looked up): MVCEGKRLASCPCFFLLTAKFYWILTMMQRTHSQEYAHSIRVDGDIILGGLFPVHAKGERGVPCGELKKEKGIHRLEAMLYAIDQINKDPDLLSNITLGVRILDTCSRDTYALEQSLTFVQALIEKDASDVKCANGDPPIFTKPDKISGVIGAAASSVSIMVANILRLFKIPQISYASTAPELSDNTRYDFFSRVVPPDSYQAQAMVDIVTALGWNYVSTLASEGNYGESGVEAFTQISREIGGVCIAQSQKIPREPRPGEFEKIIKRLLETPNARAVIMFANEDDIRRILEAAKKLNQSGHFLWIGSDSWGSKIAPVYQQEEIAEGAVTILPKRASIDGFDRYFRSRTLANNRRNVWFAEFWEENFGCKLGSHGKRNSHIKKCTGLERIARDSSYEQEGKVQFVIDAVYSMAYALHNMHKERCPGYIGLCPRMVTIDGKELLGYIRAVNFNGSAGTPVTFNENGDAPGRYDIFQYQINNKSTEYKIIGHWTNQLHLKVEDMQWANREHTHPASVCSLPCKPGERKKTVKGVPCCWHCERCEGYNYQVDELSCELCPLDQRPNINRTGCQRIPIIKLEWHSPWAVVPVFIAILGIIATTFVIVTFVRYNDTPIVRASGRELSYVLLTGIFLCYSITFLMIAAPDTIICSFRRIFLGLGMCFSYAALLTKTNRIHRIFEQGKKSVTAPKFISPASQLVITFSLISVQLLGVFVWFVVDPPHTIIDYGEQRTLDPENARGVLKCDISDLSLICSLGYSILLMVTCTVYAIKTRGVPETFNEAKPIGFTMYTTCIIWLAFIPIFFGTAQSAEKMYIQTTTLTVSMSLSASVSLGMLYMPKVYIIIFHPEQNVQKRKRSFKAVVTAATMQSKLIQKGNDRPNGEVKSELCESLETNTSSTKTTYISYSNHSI
Assay: rat mGluR8 modulators via GIRK flux, primary screen, cell-based, thallium flux, HTS (AID 488969)
Settings: HEK293 rat mGluR8, GIRK (G protein-gated inwardly rectifying potassium channel) thallium flux, FluoZin2; at 10 µM; stronger effect = higher value; submaximal glutamate (EC20) added with thallium

SMILES	z-score
CC1=C(C)CC(C(=O)NCCc2ccccc2)C(C(=O)O)C1 (stereo not drawn)	-0.101
CC(=O)c1cccc(NC(=O)Cn2cc3c(n2)CCCC3)c1	-0.279
S=c1[nH]nc(-c2ccc3ccccc3n2)o1	-0.153
Cc1ccc(-c2cc(C(=O)N/N=C/C=C/c3ccccc3)n[nH]2)o1	0.977
COc1cc(C(=S)N2CCCC2)cc(OC)c1OS(=O)(=O)c1ccc(NC(C)=O)cc1	active: -3.19
C/C(=N\OC(=O)c1ccc(C)cc1)c1sc(C)nc1C	-0.547
CCCOc1ccc(Cc2c(Cl)nc(SC)nc2N(C)C)cc1	-0.168
CC(=O)c1cnc(SCCN2C(=O)c3ccccc3C2=O)nc1C	0.192
Cc1cc(C#N)c(C)c(SCc2[nH]nc3c2C(c2ccccc2)C(C#N)=C(N)O3)n1 (stereo not drawn)	-0.00817
O=C(C1CCCO1)N1CCN(C(=S)Nc2ccc(Cl)cc2Cl)CC1 (stereo not drawn)	-0.271
CCCCOC(=O)/C(=C\c1ccc([N+](=O)[O-])o1)NC(=O)c1ccccc1	-0.382
Cc1ccc(S(=O)(=O)c2ccc(Oc3ccccc3)cc2)cc1	-0.194
CC(C)CC(c1nnnn1CC1CCCO1)N1CCN(Cc2ccc3c(c2)OCO3)CC1 (stereo not drawn)	-0.0948
Cc1c(C(=O)NCCSc2ccc(Cl)cc2)cccc1[N+](=O)[O-]	-0.226
O=C(CSc1nnnn1-c1ccccc1)Nc1ncc2c(n1)CC(c1ccco1)CC2=O (stereo not drawn)	-0.485
Nc1nnc(SCC(=O)NC23CC4CC(CC(C4)C2)C3)s1	-0.0347
COc1ccc(CC(=O)Nc2cc(C)on2)cc1	-0.231
O=c1cc(O)nc(SCc2ccccc2)n1-c1ccc(F)cc1	-0.305
CCn1c(-c2ccc(Cl)cc2)n[nH]c1=S	0.134
CN(CC(=O)NCCc1ccc(Cl)cc1)S(=O)(=O)c1ccc2c(c1)c(=O)n(C)c(=O)n2C	0.137
CC(=O)OCc1c(C(F)(F)F)nn(C)c1Oc1ccccc1	-0.0121
COc1nccnc1NS(=O)(=O)c1ccc(NS(=O)(=O)c2ccc(NC(C)=O)cc2)cc1	-0.0466

SMILES	z-score
CC1Cc2cc(/C(O)=C3\C(=O)C(=O)N(CCN(C)C)C3c3ccccc3F)ccc2O1 (stereo not drawn)	-0.489
COc1cc(C(=O)NCCc2nc3ccccc3n2C)cc(OC)c1OC	-0.686
CNC(=O)c1ccc2nc(NC(C)=O)sc2c1	active: 8.42
O=C(Oc1cccc2ccccc12)c1cc(Cl)nc2ccccc12	-0.201
O=C(N/N=C/c1c[nH]c2ccccc12)c1cc(-c2ccc(-c3ccccc3)cc2)n[nH]1	-0.293
COc1ccc(C(C#N)(CCC#N)CCC#N)cc1OC	-0.234
C/C(N)=C(/C#N)C(=O)COC(=O)CCC1CCCC1	-0.0734
CC1CCCCN1CCCn1c(=S)[nH]c2ccccc2c1=O (stereo not drawn)	active: 3.46
Brc1ccc(-c2nc3ncccn3c2NC2CCCCC2)o1	-0.754
COc1ccc(CCN2C(=O)C3CC=C(C)CC3C2=O)cc1OC (stereo not drawn)	0.0314
COc1ccc(-n2c(SC(CN3CCCCC3)CN3CCCC3=O)nc3ccccc3c2=O)cc1 (stereo not drawn)	-0.446
CC(C)=NNC(=O)CN1C(=O)NC2NC(=O)NC21 (stereo not drawn)	-0.0255
Cc1c(C(=O)N2CCC(C(N)=O)CC2)sc(N)c1C#N	1.16
CCOC(=O)CC1C(=O)NCCN1C(=S)Nc1ccccc1 (stereo not drawn)	-0.192
Cn1ncc(Cl)c1C(=O)Nc1ccc(Cl)cn1	-0.172
O=C(CSCc1n[nH]c(=O)[nH]1)NCCOc1cccc(Oc2ccccc2)c1	-0.469
Cc1ccc(OC(=O)CCC(=O)N2CCc3ccccc32)cc1	0.112
CC(=O)c1c(N2CCOCC2)nc(=S)n(-c2cc(C)ccc2C)c1C	0.108
CC(Oc1ccc(Br)cc1)C(=O)N1CCc2ccccc21 (stereo not drawn)	-1.56
CCn1c(=O)cc(OCC(=O)NCCCN2CC(C)CC(C)C2)c2ccccc21 (stereo not drawn)	-0.193
Cc1cc(C(=O)OCC(=O)NC2CCCCC2)c(C)o1	-0.102
Cn1c(NC(=O)c2ccc(Cl)cc2)c(-c2ccccn2)c(=O)c2ccccc21	0.12

SMILES	z-score
O=C(COC(=O)[C@H](Cc1ccccc1)N1C(=O)c2ccccc2C1=O)Nc1ccc2c(c1)OCO2	-0.487
CCCCOC1(c2ccccc2)NC(=S)NN=C1c1ccccc1 (stereo not drawn)	0.993
O=C(Nc1c(C(=O)N2CCOCC2)cnn1-c1ccccc1)c1ccco1	-0.201
CCC(=O)N1N=C(c2c(-c3ccccc3)c3cc(Cl)ccc3[nH]c2=O)CC1c1ccco1 (stereo not drawn)	-0.155
CCC1CCCCN1C(=O)COc1cc(=O)n(C)c2ccccc12 (stereo not drawn)	0.0976
CCOc1cc(S(=O)(=O)NCc2ccc3c(c2)OCO3)ccc1F	0.365
O=C(O)CCC(=O)N1CCc2cc(S(=O)(=O)NCc3cccs3)ccc21	-0.144
CC(C)CC(=O)/C=C/n1c(=S)oc2ccccc21	-0.237
NS(=O)(=O)c1ccc(NC(=S)N2CCN(S(=O)(=O)c3ccc(F)cc3)CC2)cc1	0.195
COc1ccc(S(=O)(=O)N(CCc2ccccc2)CC(=O)O)cc1Cl	-0.104
O=C(CN1C(=O)NC2(CCCC2)C1=O)Nc1ccc(F)cc1	0.19
CCOc1ccc(NC(=O)/C(C#N)=C/c2ccc(N3CCCC3)c(C)c2)cc1	-0.0188
Cc1cc(C)cc(N(CC(=O)NCc2ccco2)C(=O)c2snc(C(N)=O)c2N)c1	-0.315
COc1ccc(OC(C)C(=O)Nc2ccccc2C(F)(F)F)cc1 (stereo not drawn)	-0.114
Fc1ccc(N2CCN(/C=C/c3nnnn3-c3ccccc3)CC2)cc1	-0.208
O=C1CN(c2nnnn2-c2ccccc2)CCN1	-0.124
CCN(CC)C(=O)/C(=C\c1cccc([N+](=O)[O-])c1)NC(=O)c1ccco1	-0.281
Clc1ccc2[nH]cc(-c3nnnn3-c3ccccc3)c2c1	0.0708
COc1ccc(CCC(=O)Nc2nc3c(s2)CN(C)CC3)cc1OC	0.859
CCOC(=O)C1CCCN(C/C(O)=C(\C#N)c2nc(-c3ccc(Cl)cc3)cs2)C1 (stereo not drawn)	0.509
COc1ccc(OC2C(=O)N(Cc3ccc(F)cc3)C2c2cc(OC)c(OC)c(OC)c2)cc1 (stereo not drawn)	-0.147
COCCNC(=O)C(OC(=O)c1cc2oc(C)cc2n1C)C(C)C (stereo not drawn)	0.0671

SMILES	z-score
C=CCn1c(-c2ccccc2)c[nH]c1=S	0.229
CC(C)CN(/C=N/c1sc2c(c1C#N)CCCCC2)CC(C)C	2.9
Cc1nc(NC(=O)CSc2nnnn2C)sc1C	0.112
Nc1c(-c2cccc(Cl)c2)cnn1-c1cccc(C(F)(F)F)c1	-0.78
O=C(CSc1nnc(CNC(=O)c2c(F)cccc2Cl)o1)Nc1ccccc1	-0.312
CC(C)Cn1c(CNC(=O)c2ccccc2)nc2ccccc21	-0.201
C=CCNC(=O)CSc1nnc(-c2cccs2)o1	0.519
Cc1cccc(C)c1NC(=O)c1ccc(-c2ccc(Cl)cc2Cl)o1	0.494
CCCCn1c(SCC(=O)NCc2ccccc2)nc2ccc(N3CCOCC3)cc2c1=O	1.1
O=C(Nc1cc(C(F)(F)F)cc(C(F)(F)F)c1)c1ccc(Cn2cc(C(F)(F)F)ccc2=O)cc1	0.0447
CCN1C2=C(C(=O)CCC2)C(c2ccc(O)cc2)C2=C1CCCC2=O	0.473
CCOC(=O)c1c(NC(=O)c2c(-c3ccccc3)noc2C)sc(C)c1-c1ccccc1	-0.174
Cc1ccc(NC(=O)c2c(C(F)(F)F)nn(C)c2SCc2cccc(C(F)(F)F)c2)cc1C	-0.106
CCOC(=O)C(CC)Sc1nc(-c2ccc(OC)cc2)nc2c1c(=O)n(C)c(=O)n2C (stereo not drawn)	0.0854
N#Cc1c2n(c(=O)[nH]c1=O)CCCCC2	-0.0381
CCCOc1ccc(NC(=O)C2CC(=O)N/C(=N/N=C(C)/C=C/c3ccc(N(C)C)cc3)S2)cc1 (stereo not drawn)	0.602
COc1ccc(-c2csc3nc(-c4ccccc4F)oc(=O)c23)cc1OC	-0.361
COc1ccc(N2C(N)=NC(N)=NC2(C)C)cc1	0.15
Cc1ccc(NC(=O)C2c3ccccc3Oc3ccccc32)c(C)c1	-0.214
CC(c1cccnc1)N(C(=O)Nc1ccccc1)C1CCCCC1 (stereo not drawn)	-0.238
CCc1ccc(NS(=O)(=O)c2ccc3[nH]cc(C(=O)N4CCCCC4)c(=O)c3c2)cc1	0.372
CCOn1c(=O)c(-c2ccc(Cl)cc2)[n+]([O-])c2ccccc21	0.119

SMILES	z-score
Cc1ccc(C(=O)N/C(=C/C=C/c2ccccc2)C(=O)NCc2ccco2)cc1	-0.176
NC(=O)CNC(=O)[C@@H]1CC2(CC(c3cccc(Br)c3)=NO2)CN1C(=O)c1ccc(Br)cc1 (stereo partly drawn)	-0.0921
COc1ccc(C/C(O)=C(\C#N)c2nc3ccccc3s2)cc1	-0.184
CN1CCN(C(=O)C(Cc2ccccc2)NS(=O)(=O)c2ccc3c(c2)CCC(=O)N3)CC1 (stereo not drawn)	0.00384
CCc1cc2c(-c3ccccc3)cc(=O)oc2cc1OC(=O)c1cccs1	-0.301
COc1ccc(Nc2nc(CC(C)=O)ns2)cc1	0.0451
CC(=O)c1c(C)[nH]c(C(=O)CSc2nc3ccc(C)cc3[nH]2)c1C	-0.553
COc1ccc(N2CCN(C(=O)CSc3nnc4c(C)cc5c(C)cc(C)cc5n34)CC2)cc1	0.274
Cc1ccc(S(=O)(=O)N2CCCC2C(=O)OCc2nc3ccccc3s2)cc1 (stereo not drawn)	-2.03
CCC(C)n1c(=S)[nH]c2c(sc3ccc([N+](=O)[O-])cc32)c1=O (stereo not drawn)	active: 9.11
C#CCN1C(=O)C(O)(CC(=O)c2cccc(OC)c2)c2ccccc21 (stereo not drawn)	0.151
COc1cccc(NC(=S)NN2C(C)CCCC2C)c1 (stereo not drawn)	-0.022
CCn1c(COc2ccc(=O)n(-c3ccccc3)n2)nnc1SCc1ccc(C)cc1	-0.691
CC(C)c1nc2ccc(NC(=O)C3CCCCC3)cc2[nH]1	-0.295
CC(C)Cn1c(CN2C(=O)c3ccccc3C2=O)nc2ccccc2c1=O	-0.855
Nc1n[nH]c(-c2ccccc2)n1	0.189
COC(=O)C(C)N(C#N)c1nc(C)cc(C)n1 (stereo not drawn)	-0.0133
CCCCCCCCOC(=O)C[N+](C)(C)C/C=C(/C)Cl	0.0563
Cc1ccc(C2C3=C(CCCC3=O)Nc3[nH]c(=S)[nH]c(=O)c32)cc1 (stereo not drawn)	-0.451
COc1ccc(OC)c(S(=O)(=O)Nc2ccc(Oc3ccccc3)cc2)c1	0.377
